# Test results reported in the supplement of paper PMC11417369.
# The list shows a part of the results.
# System: PfHDP1 homeodomain (GST-tagged)
# Assay: gcPBM binding intensity (ln(normalized median fluorescence intensity)); higher = stronger DNA binding
# Procedure, shortened: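 GST-tagged P. falciparum DNA-binding domains, expressed in E. coli (about 25 μg on average), were applied for 1 h to an Agilent 4 × 180k array of primer-extended double-stranded 36-bp intergenic genomic probes plus negative controls. The binding buffer was 1× PBS with 1% milk, 0.2 mg/ml BSA, 0.5% salmon testes DNA and 0.03% Triton X-100. Bound protein was detected with Alexa488 anti-GST antibody and scanned at 488 nm. Binding intensity is the highest Masliner-normalised natural-log median intensity across replicate spots of either probe orientation.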
row,Sequence,gcPBM binding intensity (ln)
1,ATTATATTTTTAAGTACACACATATATATATATATA [CACACA_site5925],9.27
2,AGCCTCGGGGTCATATATATATATATATATATATAT [CACACA_negctrl_site512],9.56
3,CCACGTATAATATGTACACACACATATATACAAAAA [CACACA_site8208],6.7
4,ATAAAAATCATGTTGGTGCGAAATTTTATTATCAGA [GTGCAC_site9735],7.07
5,ATATTAATTCGTTTTGTACACACATAATGAATAATT [CACACA_site8701],6.42
6,AATTATTTACCCTATACACACAAAACAGACTAAAAA [CACACA_site6688],6.76
7,TTATGTATAAACACACGTACACACACTAAGTATATC [XGTACX_site3254],6.72
8,AAGGTATGATTAATCACACACATAAATATATATACA [CACACA_site2658],6.67
9,AAAAAATAAATAAATAGTACTTTAAAAGAAAAAAAA [XGTACX_site5051],6.19
10,AAATAAAAAATGGAAATCTTAACAAGAATCATTAAC [CACACA_negctrl_site1626],6.1
11,TATATACAGAATATATGTACATATTCATTTTATATT [XGTACX_site5139],6.4
12,TTGTTTAACTTGTTAAATATAATGTATCTGTGGATA [GTGCAC_negctrl_site108],6.14
13,AAAGAAAACCAAGTGGTGCATTTTCGTTACTTCATC,9.95
14,CAATGTTACTATAATACACACAATATGTATTTGTCT [CACACA_site6668],6.7
15,AATATATATACTTTTTTTTTTTTTTTTTTTTTTTTT [CACACA_negctrl_site520],7.19
16,TTTAGCACAAACAAAAAAAAAATAGAAAAAAATATA [CACACA_negctrl_site1772],6.48
17,TATGTTTACATATACGTGCACATGAATGTATACATT [GTGCAC_site9894],9.57
18,ACAAATTGTTAAAGGTGTACAATACATATATAAGAA [XGTACX_site4906],7.43
19,AATAATTGTTATAGTTGTACAATACATATATTACAA [XGTACX_site30],6.41
20,CCTTTCTATTGAAAATGTACATATATATTATTATAT [XGTACX_site5527],6.51
21,AATAATTGTAGACATGCACACACAAATATTATATAT [CACACA_site8181],8.3
22,TGTATATATAAAAATATACACACTGTATTATTGTAA [CACACA_site3757],6.31
23,CATATTTTGAACTTCACACATATATATATATATATA [CACACA_site4228],9.42
24,GGTAGATTATTATTAACGAAAAATGTTTTTAACATA [GTGCAC_negctrl_site216],6.24
